Measured values: the supplement of paper PMC12217912
This is one part of the list. The full chains were built here from the parent and the listed change. Values near 0.05 are background.

B1: TEV protease; numbered along this chain (parent)
chain: MGESLFKGPRDYNPISSSICHLTNESDGHTTSLYGIGFGPFIITNKHLFRRNNGTLVVQSLHGVFKVKDTTTLQQHLVDGRDMIIIRMPKDFPPFPQKLKFREPQREERICLVTTNFQTKSMSSMVSDTSCTFPSGDGIFWKHWIQTKDGQCGSPLVSTRDGFIVGIHSASNFTNTNNYFTSVPKNFMELLTNQEAQQWVSGWRLNADSVLWGGHKVFMVKPEEPFQPVKEATQL

Variants of: B1
Test: raw area under fraction-flipped curve 0-4 h after induction (AUC4h, not background-subtracted), DNA-recorder readout of cleavage of the substrate (dimensionless); higher = more cleavage of the substrate by the protease variant
Conditions: temperature: 34 °C; time window: 0-4 h after rhamnose induction
Method: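 In vivo DNA recorder in E. coli TOP10(DE3) ΔrhaA at 34 °C. Each TEVp single-site mutant (parent TEVp 0) is paired with a single-site variant of the 7-mer TEVs (canonical ENLYFQ|S). The substrate sits between flexible linkers in a Bxb1-sfGFP-TEVs-SsrA fusion, so cleavage stabilises Bxb1 and speeds flipping of a recombination array, read by NGS. The value is the raw area under the fraction-flipped curve over 0-4 h after rhamnose induction (AUC4h), with ≥20 reads per time point. It is not background-subtracted; inactive controls average about 0.047.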
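Also: Bxb1 expression induced with 0.2% (w/v) L-rhamnose at OD600 near 0.5, cultures sampled hourly, flipped fraction per protease–substrate barcode pair counted by paired-end Illumina sequencing.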

Variant	area with substrate ENLYDQS	area with substrate ENLYGQS	area with substrate ENLYHQS	area with substrate ENLYMQS	area with substrate ENLYNQS	area with substrate ENLYQQS	area with substrate ENLYVQS	area with substrate ENLYYQS	area with substrate ENLYEQS	area with substrate ENLYIQS
A170E	0.075	0.0587	0.0608	0.0657	0.0725	0.0613	0.058	0.07		
A170W	0.0662	0.0303	0.0719	0.064				0.0599	0.0584	0.0648
S171K	0.0648		0.0754		0.0581		0.0815		0.094	
N172H	0.0337				0.0706	0.058				
N172V	0.0678	0.0465	0.0536		0.0519	0.062	0.0638	0.0588	0.0464	
N175A	0.0657	0.0575	0.0593	0.0751	0.0654		0.0678		0.0678	
N175Q	0.0628	0.0522	0.061		0.0613				0.0508	0.114
N175S	0.0721				0.0584					0.0941
N177T	0.0665	0.0657	0.0833		0.074		0.121			0.151
N178Y	0.0661		0.0699	0.163	0.0905		0.214	0.0811		
Y179D	0.0441		0.0512	0.0666	0.0422	0.0591	0.0737			
F180S	0.0642			0.0601	0.0549				0.0658	
T181E	0.0632			0.0618					0.0606	0.069
T181H	0.0435		0.0167		0.0575		0.0689	0.0691		0.0598
T181I	0.0678		0.0525						0.0552	0.112
S182F	0.0362	0.077	0.0485					0.0574	0.0547	0.0762
S182H	0.0599	0.0576	0.0507	0.0571		0.0687		0.0571		0.0538
K185N	0.0902	0.0571	0.0625		0.0569	0.074		0.0809	0.0533	0.132
E189Y	0.0515			0.0878		0.0617			0.0642	

Same assay, conditions: temperature: 34 °C; time window: 0-4 h after rhamnose induction

Variant	area with substrate ENLYLQS	area with substrate ENLYPQS	area with substrate ENLYRQS	area with substrate ENLYTQS	area with substrate ENLYWQS	area with substrate ENLYKQS	area with substrate ENLYSQS
A170W	0.0549	0.0587	0.0582	0.0572			
S171K					0.0512		
N172H					0.0586	0.0585	
N172V			0.0608				
N175A	0.0759	0.0458	0.0565		0.0752	0.0694	
N175Q		0.0566	0.0423	0.0823	0.0286		
N175S			0.0531			0.0713	0.0939
N177T		0.0823	0.0733	0.0943	0.107	0.0634	0.111
N178Y	0.168		0.0749	0.0916	0.113		0.051
Y179D						0.0148	
T181E		0.0668			0.0628		
T181H		0.0538	0.0556			0.0529	0.0719
T181I						0.0128	
S182F		0.0565				0.0676	0.0475
S182H	0.0736	0.0615	0.0726	0.0473	0.0738	0.0553	
K185N		0.0864	0.0523		0.117	0.0545	
